The other results are listed elsewhere or left out. These are further read-outs of the screen, such as a control signal, another cell line or another target. No call is given for them. Compounds called inactive in the main read-out are mostly missing here. The note in brackets gives the kind of curve behind each potency; many fits are weak.
Tags describe the fitted curve by direction and shape.

The experiment is described as follows: Natriuretic polypeptide receptor (hNpr1) antagonism - Confirmation. Further: nearly all actives have a fitted effect of over 70% in size. The conditions noted are these: HEK293 hNpr1 cGMP GloSensor luminescence, ANP-stimulated; measured here: HEK-hNpr1 cytotoxicity, CellTiter-Glo. An outline of the steps:
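HEK293 cells expressing hNpr1 and the pGS-40F GloSensor cGMP sensor, loaded with 2% GloSensor reagent for 2 h, then treated 30 min with compound at room temperature. Luciferase luminescence read before and 20 min after 0.1 nM hNppA stimulation.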
In general terms: ATP-based viability assays read luminescence as a measure of living cells.
As for `COc1ccc([S+](=O)([O-])N2CCC3(CC2)OCCN(CC2CC2)C3=O)cc1`, the CC50 (as a rule, the concentration at which the toxic effect on the cells reaches its halfway point) was 28 µM [falling, partial curve].

Take `COc1ccc(CC(=O)NC2CCN(c3cc(-c4ccc(Cl)cc4)[nH]n3)C2)cc1OC` (centres undefined): the 50% cytotoxic concentration (CC50) is 19.3 µM [falling, partial curve].

Consider `COc1cccc(-c2noc(CC3CCN(C(=O)c4ccc(OC)cc4C)CC3)n2)c1`, for which the CC50 was 9.68 µM [falling, partial curve].

Take `Clc1cccc(-c2cnc([C@@H]3COCCN3Cc3cnc4ccccc4c3)[nH]2)c1`: the CC50 was 39.6 µM [falling, partial curve].

On to `CC(C)c1ccc(CC(=O)N2CCCc3ncc(C(=O)N(C)c4ccccc4)cc32)cc1`, for which the CC50 was 35.3 µM [falling, partial curve, poor fit].

For the compound `Cc1ccc2nc(C3CCN(Cc4ccc(C#N)cc4)CC3)[nH]c(=O)c2c1`, the CC50 was 12.2 µM [falling, partial curve].

As to `CNc1nccc(N2CCC(CC(=O)N3CCN(c4ccccc4C)CC3)CC2)n1`, the CC50 was 27.3 µM [falling, single point].

For `COc1ccc(S(=O)(=O)N2CCc3c(C(=O)NCc4cccc(F)c4)cccc32)cc1`, the CC50 was 21.7 µM [falling, partial curve].

As to `CC1=NS(=O)(=O)N(C)C=C1C(=O)OCc1nc(-c2cccs2)no1`, the CC50 was 38.5 µM [falling, single point].

With `CN(Cc1ccnc2ccccc12)C(=O)c1cn(Cc2ccc(Cl)cc2)nn1`, the CC50 was 17.2 µM [falling, partial curve].

As for `CC(C)NC(=O)N1CCNc2cnc(Nc3cccc(C(F)(F)F)c3)nc2C1`, the CC50 is 25 µM [falling, partial curve].

`Cc1ccccc1-c1cnc2[nH]cc(CC(=O)N3CCCC3)c2c1`: the CC50 was 19.8 µM [falling, partial curve].

Take `COc1ccc(CN2CC3(CCN(C(=O)c4cn[nH]c4-c4ccc(F)cc4)CC3)C2=O)cc1`: the CC50 was 21.7 µM [falling, partial curve].

Take `O=C(c1ccc(F)cc1)N1CCC(Cc2nc(-c3ccccc3)no2)CC1`: the CC50 was 6.11 µM [falling, full curve].

As to `COc1ccc(OCC2(C)COc3ccc(C(=O)Nc4ccccc4)cc3N2)cc1` (centres undefined), the CC50 was 62.7 µM [falling, single point].

In the case of `O=C1CCC2(CCN(c3nc4ccccc4s3)CC2)CN1Cc1cccnc1`, the CC50 was 19.3 µM [falling, partial curve].

For `CC1(CCCCc2ccccc2)COc2ccc(C(=O)N3CC(O)C3)cc2N1` (centres undefined), the CC50 was 31.4 µM [falling, partial curve].

For `Cc1ccc(S(=O)(=O)N2CCc3c(C(=O)NCc4ccccn4)cccc32)cc1`, the CC50 is 24.3 µM [falling, partial curve].

Consider `CCn1nccc1C(=O)N1CCC(CCOc2ccc(F)cc2)C1` (centres undefined), for which the CC50 was 21.7 µM [falling, partial curve].

In the case of `O=C1c2c(nc(CNCc3cccc(Cl)c3)n2Cc2ccccc2)NCCN1CCOc1ccccc1`, the CC50 was 43.2 µM [falling, single point].

On to `Cc1ccc(CN2CC(Oc3ccc(-c4noc(-c5cccnc5)n4)cc3)C2)o1`, for which the CC50 was 21.7 µM [falling, partial curve].

On to `COc1ccc(OC)c(CNC(=O)c2ccc(-c3ccc(N4CCSCC4)nc3)cc2)c1`, for which the CC50 is 6.85 µM [falling, full curve].

As for `Cc1noc(C)c1-c1cc2c(c(-c3ccc(F)c(Cl)c3)c1)C(=O)N(C)C2`, the cytotoxic concentration (CC50) was 17.7 µM [falling, partial curve].

For the compound `Cc1oc(-c2ccccc2)nc1CN1CCCC(C(=O)NCCc2noc(-c3ccccc3)n2)C1` (centres undefined), the CC50 was 21.7 µM [falling, partial curve].

For `COc1ccc(CN2C[C@H]3CN(Cc4ccc([N+](=O)[O-])cc4)CCN3C2=O)cc1`, the CC50 is 19.8 µM [falling, partial curve].

Consider `CC(C)c1cc(C(=O)NC2CCN(c3ncccc3C#N)CC2)n(C)n1`, for which the CC50 is 7.69 µM [falling, partial curve].

Regarding `COCc1nc(-c2ccc(OC3CN(C(=O)NCc4ccc(OC)cc4)C3)cc2)no1`, the CC50 is 19.3 µM [falling, partial curve].

For the compound `COC(=O)N1CCCCC(NC(=O)CCCc2nc(-c3ccccc3C)no2)C1` (centres undefined), the CC50 is 21.7 µM [falling, partial curve].

Regarding `Cc1ccc(C(=O)N2CCC(n3cc(-c4nc(C5CC5)no4)nn3)C2)s1` (centres undefined), the CC50 was 21.7 µM [falling, partial curve].

In the case of `COc1ccc(C2(C(=O)N3CCC(Cc4nc(-c5ccccc5)no4)CC3)CC2)cc1`, the CC50 was 12.2 µM [falling, partial curve].

As for `COc1ccc(CNC(=O)c2ccc3c(c2)N(C(=O)c2ccc(F)cc2)CC3)cc1OC`, the CC50 was 6.11 µM [falling, partial curve].

With `COC(=O)c1cccc(NC(=S)N[C@H]2CO[C@H]3[C@@H]2OC[C@H]3OC(=O)Nc2cccc(C(F)(F)F)c2)c1`, the CC50 is 24.3 µM [falling, partial curve].

On to `COc1ccccc1C(=O)N1CC(Oc2ccc(-c3nc(-c4ccccc4)no3)cc2)C1`, for which the CC50 was 24.3 µM [falling, partial curve].

Take `O=C(Nc1nccs1)[C@@H]1C[C@@H](c2ccc(F)cc2)N(CCOc2ccccc2)C1`: the CC50 was 44.4 µM [falling, single point].

For the compound `CN(C)c1cccc(C(=O)N2CCN(C(=O)c3nnn4c3COC(c3ccc(Cl)cc3)C4)CC2)c1` (centres undefined), the cytotoxic concentration (CC50) is 21.7 µM [falling, partial curve].

Take `O=C(c1ccc2[nH]ccc2c1)N1CCC2(CC1)N=C(c1ccc(Br)cc1)NO2`: the CC50 is 24.3 µM [falling, partial curve].

In the case of `CN1C[C@@H](NC(=O)c2ccc3c(c2)OCO3)C[C@H]1c1nc(-c2ccc(Cl)cc2)no1`, the CC50 was 35.3 µM [falling, partial curve].

As for `Cn1ccc(NC(=O)c2ccc3c(c2)NC(C)(CCCCc2ccccc2)CO3)n1` (centres undefined), the CC50 is 31.4 µM [falling, partial curve].

In the case of `CN(Cc1cccnc1)c1ccc2ncc(Nc3cccc(C(F)(F)F)c3)n2n1`, the CC50 was 25 µM [falling, partial curve].

The values above are taken from PubChem BioAssay AID1347044 (National Center for Advancing Translational Sciences (NCATS), 2019).
